# Reference: PubChem BioAssay (NCI)
# Values joined by “and” are separate entries in the source; they are usually repeats but may differ in a detail not shown here. Identical values can stand only once.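 Compound exposure: 48 hours, 5 concentrations, 96-well plates. GI50: concentration for 50% inhibition of growth. TGI denotes the concentration required for complete inhibition of growth.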
# Tested on: NCI-H322M lung
# Experiment: NCI tumour cell line growth inhibition, 48 h
SMILES,TGI,GI50
Cc1cc(Cl)ccc1NC(=O)/C(CC(=O)CC(c1ccccc1)c1c(O)c2ccccc2oc1=O)=N\O (stereo unspecified),> 100 µM,–
CC(C)[Si](OCC/C=C/C1CCC(=O)C1C(O)C1CCCCC1)(C(C)C)C(C)C (stereo unspecified),28.8 µM,–
Nc1ccn(C2OC(COP(=O)(O)O)C(O)C2O)c(=O)n1 (stereo unspecified),> 100 µM,–
O=S(=O)([N-]c1nc2ccccc2nc1-[n+]1ccccc1)c1ccccc1,> 100 µM,–
Cc1ncc([N+](=O)[O-])n1CC(O)Cn1cnc([N+](=O)[O-])n1 (stereo unspecified),> 100 µM,–
C=C1C(=O)O[C@H]2[C@H]1CC/C(COC(=O)NCCc1c[nH]c3ccccc13)=C\CC[C@@]1(C)O[C@@H]21,19.4 µM,6.39 µM
NC(=S)Nc1nnc(-c2ccc(-c3nnc(NC(N)=S)o3)cc2)o1,> 100 µM,–
C1=Cc2nc1c(-c1ccccc1)c1ccc([n-]1)c(-c1ccccc1)c1nc(c(-c3ccccc3)c3ccc([n-]3)c2-c2ccccc2)C=C1.[Zn+2],> 100 µM,–
Cc1ccc2nc(CN3CCCCC3)cc(=O)n2c1,> 100 µM,–
CC(=O)NC(Cc1c[nH]c2ccccc12)C(=O)O (stereo unspecified),> 100 µM,–
CC(=O)NNc1nc(C)c(C(/C=C/c2ccccc2O)=N/NC(=O)c2ccncc2)s1,> 100 µM,–
CCOC(=O)Cc1nc2nn(Cc3ccccc3)cc2c(=O)[nH]1,> 100 µM,–
O=C(CC1(O)C(=O)Nc2ccccc21)c1ccc(O)cc1O (stereo unspecified),> 100 µM,–
C=C1C(=O)O[C@H]2[C@H]1CC/C(Cn1cc(Cn3ccc4cc(Cl)ccc43)nn1)=C\CC[C@@]1(C)O[C@@H]21,21.3 µM,9.39 µM
CC1=C(C#N)C(=O)N(/N=C/c2ccc(Cl)cc2)C(=O)/C1=c1\o/c(=C2/C(=O)N(/N=C/c3ccc(Cl)cc3)C(=O)C(C#N)=C2C)c2nccnc12,> 100 µM,–
O=c1[nH]cnc2c1nnn2[C@@H]1O[C@H](CO)[C@@H](O)[C@H]1O,> 100 µM,12.3 µM
O=C1C=CC(=O)N1c1ccc2c(c1)Cc1cc(NC(=O)C(F)(F)F)ccc1-2,> 84.9 µM,–
OCC1OC(O)C(N=Cc2ccc3c(c2)OCO3)C(O)C1O (stereo unspecified),> 100 µM,–
O=C1CC(N2C(=O)/C(=C/C(Cl)=C\c3ccc([N+](=O)[O-])cc3)SC2=S)C(=O)N1c1ccc(Cl)cc1 (stereo unspecified),> 100 µM,3 µM
CNC(=O)c1ccc(Nc2nc(OC3CCCC3)c3c(-c4ccc5nc(C)oc5c4)c[nH]c3n2)c(OC)c1,> 100 µM,11 µM
CC/C(=C/OC)P1(=O)OC(C)(C)CN1C(C)(C)C (stereo unspecified),> 100 µM,–
NC(=S)N/N=C1\C(=O)N(c2cccc([N+](=O)[O-])c2)C(=O)C1C(=O)Nc1cccc([N+](=O)[O-])c1 (stereo unspecified),> 100 µM,–
O=C(NN1C(=O)/C(=C/c2ccc(Cl)cc2)N=C1c1ccccc1)c1c(Cl)c(Cl)c(Cl)c(Cl)c1-c1nc2ccccc2[nH]1,> 100 µM,–

SMILES,TGI,GI50
c1ccc2c(OCC3CO3)ccc(OCC3CO3)c2c1 (stereo unspecified),22.4 µM,–
C#CCOC(=O)C(N)CS (stereo unspecified),> 100 µM,–
CCOC(=O)C(NC(=O)NCc1ccc(F)cc1)C(F)(F)F (stereo unspecified),> 100 µM,–
CCOC(=O)C(=O)Nc1ccc([N+](=O)[O-])cc1C#N,> 100 µM,–
COc1c(C(CC(C)C)OC(C)=O)ccc2c1C(=O)OCc1cc(C)cc(O)c1O2 (stereo unspecified),32.7 µM,–
COc1cc(/C=C2\C[C@H]3[C@@H]4CC=C5C[C@@H](OC(C)=O)CC[C@]5(C)[C@H]4CC[C@]3(C)[C@H]2OC(C)=O)ccc1OCCCn1ccnc1,20.6 µM,9.76 µM
O[C@H]1[C@H]2[C@H](O)CCCN2C[C@H]1O,> 100 µM,–
CC1N(O)C(c2ccccc2)C(c2ccccc2)=[N+]1[O-] (stereo unspecified),> 100 µM,–
CN1CCN(Cc2ccc(NC(=O)c3[nH]ncc3Nc3ccnc4ccsc34)cc2)CC1,12.8 µM,2.53 µM
Cc1cc(-c2cc(C)c(O)c(C(C)(C)C)c2)cc(C(C)(C)C)c1O,26.3 µM and 28.8 µM,–
CC1C(c2ccccc2)=CCON1c1ccccc1 (stereo unspecified),> 100 µM,–
O=C(/C=C(\O)C(=O)O)/C=C(\O)c1ccccc1Cl,> 100 µM,–
CC(=O)Oc1cc2c(=O)oc3c(OC(C)=O)c(OC(C)=O)c(OC(C)=O)c4c(=O)oc(c1OC(C)=O)c2c34,> 100 µM,–
O=C(/C=C\c1cccc2ccccc12)c1ccc(Br)cc1,> 100 µM,–
COc1ccc2cc(CNCCCN3CCN(CCCNCc4ccc5cc(OC)ccc5c4)CC3)ccc2c1,3.13 µM,–
c1ccc2c(c1)n1c(N3CCOCC3)[n+]3ccccc3c1c1c3cccc[n+]3c(N3CCOCC3)n21,> 100 µM,–
COC1(OC)C[C@H](C)[C@@]23O[C@]24c2cc(O)c5c(c2N[C@H]3C#C/C=C\C#C[C@]14O)C(=O)c1ccccc1C5=O,0.222 µM and 0.411 µM,0.0329 µM
COC(=O)C1=C(C(=O)OC)C(C(=O)c2ccccc2)N2N=C(c3ccc(Cl)cc3)C=CC12 (stereo unspecified),> 100 µM,–
CCN(CC)CCCN1C(=O)c2c(c(C)c3c(oc4cc(O)ccc43)c2C)C1=O,3.11 µM,1.7 µM
CC1CC(C)C(=O)C(C(=O)CC2CC(=O)NC2=O)C1 (stereo unspecified),> 100 µM,–
CCN(CC)CCCC(C)N/C(c1cccc(OC)c1)=c1\c(=O)[nH]n(-c2c3ccccc3nc3ccccc23)c(=O)\c1=C(/NC(C)CCCN(CC)CC)c1cccc(OC)c1 (stereo unspecified),3.42 µM,1.28 µM
COc1cc(N)ccc1Nc1c2ccccc2nc2ccccc12,33 µM,17.2 µM
COc1ccc2c(c1)-c1c(c3ccccc3n1CCN1CCCCC1)CC2,24.6 µM,–

SMILES,TGI,GI50
CCOP(=O)(CCC(O)CNc1nc(N)nc(Cl)c1N=Nc1ccc(Cl)cc1)OCC (stereo unspecified),28.3 µM,–
Cc1c(C(=O)Nc2ccc(Cl)c(C(F)(F)F)c2)oc2cc(O)ccc2/c1=N\NC(N)=S,> 100 µM,–
c1cncc(-c2cc(-c3cc(-c4cccnc4)n[nH]3)[nH]n2)c1,> 100 µM,–
Cc1nc2c(n1CCCl)C(=O)c1ccccc1C2=O,> 100 µM,–
O=C1CS(=O)(=O)C(c2cccc(Oc3ccccc3)c2)N1c1cccc(Cl)c1Cl (stereo unspecified),> 100 µM,–
O=C1OC(c2ccccc2)(c2ccccc2)CC1CN1CCOCC1 (stereo unspecified),> 100 µM,–
OC1C=C2C3CN(Cc4cc5c(cc43)OCO5)[C@H]2C[C@@H]1O (stereo partly specified),51.5 µM,–
COc1ccc(/C(Cl)=C(\C=O)c2cc(OC)c(OC)c(OC)c2)cc1OC,> 100 µM,–
Cn1cc(C(=O)/C(Cl)=C(\Cl)C(=O)O)c2ccccc21,> 100 µM,–
Cc1cccc(NC(=O)CSc2nnc(Cc3ccccc3)o2)c1,> 100 µM,–
COCC1OCCN1C (stereo unspecified),> 100 µM,–
Cc1cc(C)n(C(=O)C(C)Sc2nnc(SC(C)C(=O)n3nc(C)cc3C)s2)n1 (stereo unspecified),> 100 µM,–
C[C@]12CC[C@@H]3c4ccc(OCC(=O)O)cc4CC[C@H]3[C@@H]1CCC2=O,> 100 µM,–
CO[C@@]12C[C@@H](CNC(=O)c3cc(Br)c[nH]3)O[C@@H]1NC(=O)N2,> 100 µM,–
CCOC(=O)C1=C(C)C2C3C(=O)NC(=O)C3C1(C)C1C(=O)NC(=O)C21 (stereo unspecified),> 100 µM,–
COc1ccc(/C=c2/[nH]c(=O)/c(=C\c3ccc(OCc4ccccc4)cn3)[nH]c2=O)cc1,> 100 µM,–
Cn1c(=S)[nH]c2c(Cl)cc(Cl)cc2c1=O,> 100 µM,–
C=C1[C@H](OCC(C)C)[C@@H](OCC(C)C)[C@@H](O)C(C)(C)/C=C/[C@H](C)C(=O)[C@@]2(O)C[C@H](C)[C@H](O)[C@@H]2[C@H]1OCC(C)C,> 7.5 µM,–
O=C(CCc1ccc(O)c(O)c1)c1ccc(O)c(O)c1O,> 100 µM,–
COc1ccc2c(c1)C(=O)c1c-2c(N2CCN(C(=O)CN(C)C)CC2)nc2ccccc12,96.6 µM,28.4 µM
CN1CCC23c4ccccc4NC1C21CCN(C)C3Nc2ccccc21,> 234 µM,–
C[C@@H](Oc1cc(-c2cnn(C3CC4(CCNCC4)C3)c2)cnc1N)c1c(F)ccc(Cl)c1Cl,10.5 µM,3.13 µM
Cn1c(Cc2ccccc2)nc2cc3ccccc3cc21,> 100 µM,23.2 µM

SMILES,TGI,GI50
Nc1ccccc1C(=O)NNC(=O)c1ccccc1N,> 100 µM,–
C[N+]1(C)C2CCC1CC(OC(=O)C(CO)c1ccccc1)C2 (stereo unspecified),> 100 µM,–
CC1(C)CC2=NOS3=C2C(=NO3)C1c1ccccn1 (stereo unspecified),> 100 µM,–
O=C(Nc1cccc(-c2nc3ccccc3[nH]2)c1)c1cccc(NC(=O)c2ccco2)c1,8.13 µM,2.91 µM
CC(=O)C1=C(O)C2(O)C(=O)c3c(c(C)c4ccc(C)c(O)c4c3O)CC2C(N)C1=O (stereo unspecified),9.04 µM,–
O=[N+]([O-])c1ccccc1/C=C/C=C1c2ccccc2-c2ccccc21,> 100 µM,> 100 µM
Cc1c(N(C(=O)c2cc(-c3cc(Cl)ccc3C(=O)N3Cc4ccccc4C[C@H]3CN3CCOCC3)n(C)c2C)c2ccc(O)cc2)cc(C#N)n1C,> 100 µM,33 µM
CC(=O)O[C@H]1C(=O)[C@@]2(C)[C@H]([C@H](OC(=O)c3ccccc3)[C@]3(O)C[C@H](OC(=O)[C@H](OC(=O)CCC(=O)OC4CCC(S/N=C(N)/N=C(\N)N(C)C)CC4)[C@@H](NC(=O)c4ccccc4)c4ccccc4)C(C)=C1C3(C)C)[C@]1(OC(C)=O)CO[C@@H]1C[C@@H]2O (stereo partly specified),> 50 µM,0.0272 µM
C=C1C(C2(C)C=CC(=O)OC3(C)COC(=O)CC32)C(OC=O)C(OC(=O)C(O)C(C)CC)C2(C)C(c3ccoc3)CC(OC(C)=O)C12O (stereo unspecified),> 100 µM,–
COc1ccc(C(=O)O)c2c(=O)c3ccccc3[nH]c12,> 100 µM,–
O=c1[nH]c2nccn2c(Cl)c1Br,45.2 µM,–
O=C1CN2CCC1C/C2=C\c1ccnc2c(Cl)cccc12 (stereo unspecified),> 100 µM,> 100 µM
COC(=O)C(Cc1ccccc1)C(=O)NC(CNC(=O)OCc1ccccc1)C(=O)OCc1ccccc1 (stereo unspecified),> 100 µM,–
CC1=CC[C@@]2(C)[C@@H]([C@@H]1C)[C@H]1CC[C@@H]3[C@@]4(C)CC[C@H](O)C(C)(C)[C@@H]4CC[C@@]3(C)[C@]1(C)C[C@@H]2O,> 100 µM,–
N#Cc1c(SCc2ccccc2)nc2[nH]c(=S)[nH]c(=S)c2c1-c1ccco1,> 100 µM,27.6 µM
COc1cc(C(=O)O)ccc1NC(=O)[C@@H]1N[C@@H](CC(C)(C)C)[C@](C#N)(c2ccc(Cl)cc2F)[C@H]1c1cccc(Cl)c1F,19.3 µM,6.72 µM
CC(=O)OCCC[C@@H]1C(=C(C)C)CCC2[C@@]1(C)CC[C@@]1(C)C[C@](C)(CCC=C(C)C)CC[C@]21C (stereo partly specified),> 100 µM,–
COc1cc(-c2ccc(-[n+]3nc(-c4ccc([N+](=O)[O-])cc4)nn3-c3ccc([N+](=O)[O-])cc3)c(OC)c2)ccc1-[n+]1nc(-c2ccc([N+](=O)[O-])cc2)nn1-c1ccc([N+](=O)[O-])cc1,39.8 µM,12.8 µM
COc1c(C(=O)O)cccc1-c1cccc(C(=O)NCCN(CCNC(=O)c2cccc(-c3cccc(C(=O)O)c3OC)c2OC)CCNC(=O)c2cccc(-c3cccc(C(=O)O)c3OC)c2OC)c1OC,> 100 µM,–
c1cc2[se][se]c3c4cccc5[se][se]c(c(c1)c23)c54,> 100 µM,–
